Results on 45 molecules are retold here after publication PMC4336329 (PLoS ONE, 2015).

The campaign covered roughly 310,000 compounds. About 2,200 (0.71%) showed an effect of 50% or more. Effects have a minus sign here. This is one part of the list.

human ether-à-go-go-related gene (hERG) potassium channel, sequence (Q12809 whole entry, looked up): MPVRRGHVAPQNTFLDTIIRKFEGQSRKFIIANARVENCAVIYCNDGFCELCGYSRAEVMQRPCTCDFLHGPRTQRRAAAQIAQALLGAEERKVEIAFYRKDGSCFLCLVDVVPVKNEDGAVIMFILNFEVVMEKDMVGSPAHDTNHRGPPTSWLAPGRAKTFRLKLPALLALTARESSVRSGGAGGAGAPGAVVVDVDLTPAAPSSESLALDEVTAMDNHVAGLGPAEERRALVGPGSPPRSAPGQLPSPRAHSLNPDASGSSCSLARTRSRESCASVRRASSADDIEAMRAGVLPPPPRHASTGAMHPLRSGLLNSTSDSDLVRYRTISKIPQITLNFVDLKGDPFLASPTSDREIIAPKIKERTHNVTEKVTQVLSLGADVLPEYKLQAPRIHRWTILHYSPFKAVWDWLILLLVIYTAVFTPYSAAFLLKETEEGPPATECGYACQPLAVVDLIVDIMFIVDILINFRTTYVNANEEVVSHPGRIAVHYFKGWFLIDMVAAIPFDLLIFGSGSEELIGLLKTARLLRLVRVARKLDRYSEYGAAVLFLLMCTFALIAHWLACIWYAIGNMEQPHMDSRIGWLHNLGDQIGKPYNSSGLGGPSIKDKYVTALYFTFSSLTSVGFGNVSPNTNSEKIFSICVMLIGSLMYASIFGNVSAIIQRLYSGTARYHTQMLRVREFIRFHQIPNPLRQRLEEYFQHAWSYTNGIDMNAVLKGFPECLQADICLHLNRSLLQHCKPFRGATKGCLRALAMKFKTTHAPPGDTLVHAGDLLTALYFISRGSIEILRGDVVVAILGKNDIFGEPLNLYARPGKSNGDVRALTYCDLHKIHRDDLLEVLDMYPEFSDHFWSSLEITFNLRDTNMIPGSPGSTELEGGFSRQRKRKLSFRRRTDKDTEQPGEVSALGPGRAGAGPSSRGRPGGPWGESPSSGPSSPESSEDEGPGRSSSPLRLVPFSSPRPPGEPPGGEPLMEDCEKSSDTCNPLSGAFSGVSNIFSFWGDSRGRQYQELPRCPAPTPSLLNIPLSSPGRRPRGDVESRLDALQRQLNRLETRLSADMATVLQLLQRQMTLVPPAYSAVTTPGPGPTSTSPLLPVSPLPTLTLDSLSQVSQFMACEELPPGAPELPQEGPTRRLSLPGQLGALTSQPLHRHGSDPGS

This experiment concerns the target human ether-à-go-go-related gene (hERG) potassium channel (human, UniProt Q12809). The experiment in a line: primary screen, population patch clamp on CHO cells stably expressing hERG.
In the case of `c1ccc(-c2csc(NC3CCCCC3)n2)cc1`, the “hERG current change (%, negative = inhibition) at 1uM” value was 14.8%. In the case of `CCCCCCNCc1ccc(Br)cc1.Cl` it was -23.8%; in that of `O=C(c1ccc(Cn2cc([N+](=O)[O-])cn2)o1)N1CCCCCC1`, 3.04%. In the case of `COc1ccc(N2CCN(C(=O)CSc3nnc(COc4cccc5cccnc45)o3)CC2)cc1` it was 4.4%.

As to `Cc1ccc(-c2nc3ncccn3c2Nc2ccc3c(c2)OCO3)o1`, the “hERG current change (%, negative = inhibition) at 1uM” value is on record as -13.3%.

Turning to `C=C1CC2C(=O)N(Cc3cc(OC)ccc3OC)C(C(=O)OCC)(C(=O)OCC)C1N2C(=O)OC(C)(C)C` (stereo not drawn), the “hERG current change (%, negative = inhibition) at 1uM” value was 10.1%. In the case of `COc1ccc(OC)c(C2SCCN2S(C)(=O)=O)c1` (stereo not drawn) it was 6.18%; in that of `CC1CCCN(C(=O)C2CC(=O)N(c3ccc(Cl)cc3)C2)C1` (stereo not drawn), 8.18%; in that of `CC(=O)Nc1nn(C)c2nc3ccc(C)cc3cc12`, 13.1%. As for `COc1ccc(S(=O)(=O)c2c(O)c3ccc(C(=O)Nc4ccccc4)cc3[nH]c2=O)cc1`, the “hERG current change (%, negative = inhibition) at 1uM” value is 14.4%.

For `CCN(CC)C(c1ccc(F)cc1)c1nnnn1C1CCCCC1.Cl` (stereo not drawn), the “hERG current change (%, negative = inhibition) at 1uM” value is -1.16%. In the case of `Cc1cccc(-n2c(Cc3ccccc3)nnc2SCc2ccc([N+](=O)[O-])cc2)c1` it was 4.5%.

On to `CC(C)=C1C2CCC1C(C(=O)NCCc1ccccc1)C2C(=O)O` (stereo not drawn), for which the “hERG current change (%, negative = inhibition) at 1uM” value is 19.1%. In the case of `COc1ccc(/C=C/C(=O)NCC(=O)N2CCC(N(C)CCN3CCOCC3)CC2)cc1OC`, the “hERG current change (%, negative = inhibition) at 1uM” value worked out at 3.33%.

As to `COc1ccccc1C(=O)NNC(=O)C1CCCO1` (stereo not drawn), the “hERG current change (%, negative = inhibition) at 1uM” value is reported as 11.5%.

Take `Cn1c(N)c(C(=O)COC(=O)COc2ccc(Br)cc2)c(=O)n(C)c1=O`: the “hERG current change (%, negative = inhibition) at 1uM” value is reported as -2.99%. With `CC(=O)c1ccc(NS(=O)(=O)c2ccc(C)cc2)cc1` the figure was 19.4%; with `COC(=O)c1ccc(COc2ccc(C)c(C)c2)o1`, 15.6%.

For `CCOC(=O)c1sc2nc(C)nc(NC3CCC(O)CC3)c2c1C` (stereo not drawn), the “hERG current change (%, negative = inhibition) at 1uM” value worked out at 12%.

`c1coc(CNc2ncnc3sc4c(c23)CCCCC4)c1`: the “hERG current change (%, negative = inhibition) at 1uM” value was -16%.

Take `COc1cccc(-c2csc(N3CCN(C(=S)NCC(C)C)CC3)n2)c1`: the “hERG current change (%, negative = inhibition) at 1uM” value came to 7.06%. On to `N#CCCn1cc(C=C(C#N)C#N)c(-c2ccc(Cl)cc2)n1`, for which the “hERG current change (%, negative = inhibition) at 1uM” value is 2.36%. With `CCOc1ccc(NC(=O)CC2SC(=O)N(c3ccccc3)C2=O)cc1` (stereo not drawn) the figure was 16.5%; with `CN1C(=O)S/C(=C\c2ccccc2OCc2ccc(C(=O)O)cc2)C1=O`, 4.87%; with `Cc1ccc(S(=O)(=O)N(C)c2ccc(C(=O)NCCc3ccccc3)cc2)cc1`, -1.11%.

Turning to `COc1cc(C(=O)N(Cc2ccco2)Cc2cc3ccccc3[nH]c2=O)cc(OC)c1OC`, the “hERG current change (%, negative = inhibition) at 1uM” value was -13.8%. In the case of `O=S(=O)(Nc1ncccn1)c1ccc(NS(=O)(=O)c2cc(Cl)ccc2Cl)cc1` it was 16.1%. In the case of `O=C(CCCSc1nc2ccccc2[nH]1)NC1=NCCS1` it was 0.776%. Regarding `Cc1ccc2c(c1)/C(=N/OS(=O)(=O)c1ccccc1)CCS2`, the “hERG current change (%, negative = inhibition) at 1uM” value was determined as 8.57%.

Turning to `O=C(c1cnc(-c2ccccc2)s1)c1ccc(Cl)cc1Cl`, the “hERG current change (%, negative = inhibition) at 1uM” value is recorded as -9.62%. With `CC1(C)CC(=O)C2=C(C1)OC(N)=C(C#N)C21CCC2(CC1)OCCO2` the figure was 13.9%. With `Cc1ccc(COc2ccsc2C(=O)NNC(N)=S)cc1` the figure was 22.3%; with `O=C(c1cc2sccc2n1Cc1ccccc1)N1CCc2ccccc21`, 4.57%; with `COCCNC(=O)C(c1cccs1)N(C(=O)Cn1nnc2ccccc21)c1cccc(C(C)=O)c1` (stereo not drawn), 12.4%.

`CC(=O)N1CCc2c(sc(NC(=O)CS(=O)(=O)c3ccc(F)cc3)c2C#N)C1`: the “hERG current change (%, negative = inhibition) at 1uM” value is 12.5%. With `CC(C(=O)NCCS(=O)(=O)c1ccc(Cl)cc1)S(=O)(=O)c1ccccc1` (stereo not drawn) the figure was 6.53%; with `O=C(COc1cccc2ccccc12)NNC(=O)Nc1ccccc1`, 10.6%; with `CNC(=O)COc1ccc(S(=O)(=O)N2CCCC2)cc1`, 18.1%. As to `Cn1c(=O)c2c(nc(CN3CCN(C(=O)c4ccco4)CC3)n2Cc2ccccc2F)n(C)c1=O`, the “hERG current change (%, negative = inhibition) at 1uM” value is 0.716%. With `O=C(Nc1ccc2c(c1)OCCO2)C1CCC1` the figure was 5.56%; with `COc1ccc(CNC(=O)Nc2ccc([N+](=O)[O-])cc2)cc1`, 9.43%; with `COc1ccc(S(=O)(=O)Cc2ccccc2)cc1N`, -13.3%. With `COc1cccc(-c2nn(C)c3sc(C(=O)NCc4ccccn4)cc23)c1` the figure was 12.7%; with `Cc1ccc(SCCC(=O)N/N=C/c2cccnc2)cc1`, 10.8%. With `COC(C[C@H](O)C[C@H](O)[C@@H](C)OCc1ccccc1)OC` the figure was 20.9%.
